In patent US12551573B2, “Compositions and methods for the targeting of PCSK9” (Scribe Therapeutics Inc., priority 2022, dated 2026):

System: HBEGF locus
Assay type: cell-based, human
[1] = repressor domain in dXR, repression of the HBEGF gene, abundance of domain in library after vs before diphtheria toxin selection
[2] = high-throughput screen of dXR repression of the HBEGF gene, change in abundance of each domain in the library before and after diphtheria toxin selection

Row | Molecule | Log2 (fold change) [1] | Log2 (fold change) [2]
1 | DOMAIN_13379 (protein, listed as Phascolarctos cinereus) CKESVTFKDVAVEFTWEEWVHLNSSQKTLYRDVMLENYRNLVSLGFAVSKPDVIYQLERKEASWIPGADIPRSSCPESKEF | 3.2967 | 
2 | DOMAIN_13536 (protein, listed as Gorilla sp.) RPGAVSFADVAVYFSPEEWECLRPAQRALYRDVMRETFGHLGALGFSGPKPAFISWVEGEVEAWSPESQDPDGESSAAFSR | 3.3269 | 
3 | DOMAIN_13325 (protein, listed as Macaca fascicularis) FQGSVTFEDVAIAFSQQEWESLDSSQRGLYRDVMLENYRNLVSMAGHSLSKPHVIALLERWKEPKVTERKDGRRWCTDLQL | 2.4051 | 
4 | DOMAIN_13339 (protein, Puma concolor) QAEVTFEDVAVLFSREEWGRLGPTQRGLYRDVMLETYRNLVSLGAGRAGPKPGVITQLERGDEPWVLDAQGAKGKGRPRVS | 3.2731 | 
5 | DOMAIN_13346 (protein, listed as Oryctolagus cuniculus) SPESVAFEDVAVYFTKKEWASLLPAQRALYKEVMLENYGMVASLAPPPISKPALISQLEQGKEPWFTRPQGALNRRARRVV | 2.9551 | 
6 | DOMAIN_19229 (protein, listed as Enhydra lutris) VFQGSLSFEDVTVDFSREEWRLLDLAQKSLYRDVMLENYFNLISVGCQVPKQEVLFSLEQEEPRMLDGEISSHNCLGGDIG |  | 4.0294
7 | DOMAIN_13363 (protein, Phyllostomus discolor) SRKPVSFADVAVYFSPEEWGCLRPVQRALYRDVMRETYGHLGALGFQDTKPALISWMEEEAELWGSDARDPELGECLSEDT | 2.2178 | 
8 | DOMAIN_13284 (protein, listed as Phascolarctos cinereus) QQGSVTFRDVAVDFTLEEWGHLDPFQKELYRDVMLENFRNLVCLGLTVSKPDVIHQLEQGEAPWIPEGESPRNSFAGCASD | 3.0903 | 
9 | DOMAIN_13486 (protein, Puma concolor) PQEPVTFEDVAVLFTPEEWMFLDSAQRSLYRDVMLENYRNLASVGDQLGKFSSFSHLEQGEEWWPTERRVFPGSCPEPSLP | 3.4895 | 
10 | DOMAIN_13417 (protein, listed as Ailuropoda melanoleuca) QEPVTFEDVAVYFTQNQWAKLDPTQRALYREVMLENYANVASLGVAFPFPKPDLVSQLERGEVPWGPDPWEAEVLRGICPG | 3.7056 | 
11 | DOMAIN_13439 (protein, listed as Sapajus apella) FQGSISFKDVTVGFTQEEWQHLDPSQRALYRDVTLENYSNLVSVGYCVHKPEVIFRLEQGEEPWRLEEEFPSQSFPEVWTA | 2.5091 | 
12 | DOMAIN_13282 (protein, listed as Phascolarctos cinereus) PQASVTFEDVAVYLTQEEWGHLEPAQRGLYRDVMLENYGNVVSLGFPVSKPDVILQLELRGEPWFLDMQGTEGREILRDCE | 3.5504 | 
13 | DOMAIN_13193 (protein, listed as Sapajus apella) KPGAVSFADVAVYFSPEEWGCLRPAQRALYRDVMRETYGHLGALGFPGPKPALISWMEQESEAWSSAAQDPEKGESLGGAR | 3.8948 | 
14 | DOMAIN_19476 (protein, listed as Aotus trivirgatus) KPGAVSFADVAVYFSPEEWGCLRPAQRALYRDVMRETYGHLGALGFPGPKPALISWMEQESEAWSSAAQDPEKGENLGGAR |  | 4.1343
15 | DOMAIN_13364 (protein, listed as Macaca fascicularis) KPRTVSFADVAVYFSREEWGCLRPAQRALYRDVMRETYGHLGALGFPGPKPALISWMEQETEAWSPAAQDPEKGERLGGAR | 3.5606 | 
16 | DOMAIN_13125 (protein, listed as Macaca fascicularis) HQEMVTFEDVAVHFTKTEWTGLSPAQRALYRSVMLENFGNLTALGYPVPKPALISLLEGGDMAWGLEAQDDAPAERTKNIC | 3.2101 | 
17 | DOMAIN_13333 (protein, listed as Phascolarctos cinereus) LRESVTFKDVAVDFTGEEWRRLDPAQRALYRDVMLENYENLVSLGLPVSKLDVISLLERGEAPWWLEGGGLQSPCSDALSQ | 2.9787 | 
18 | DOMAIN_13387 (protein, listed as Sapajus apella) SQDLVTFKDVAIDFSQEEWQWMNPAQKRLYRSMMLENYQSLVSLGLCVSKPYVISLLEQGREPWEMTSEMTRSPFSDWESI | 2.8731 | 
19 | DOMAIN_13171 (protein, listed as Phascolarctos cinereus) SQIPLTFQDVAVDFTWEEWGLLEPSQKDMYWDVMLENYENFVSLGGIPVSFPDVISQMERIEAPWMTERGVLVSAFLDSPN | 3.0052 | 
20 | DOMAIN_13111 (protein, listed as Ailuropoda melanoleuca) QGLLTFGDVAIEFSQEEWRCLSHTQRELYRDVMLENYGHLLFLGLIVSKPDLVSLLEQRKEPWDVKRKKTVVFDPAVSSHG | 2.6151 | 
21 | DOMAIN_13537 (protein, listed as Ailuropoda melanoleuca) LQGLLTFRDVAIEFSQEEWGCLSHTQRELYRDVMLENYGHLLFSGLIASKPDLVSCLEQKKEPWDLKRKKTVAIHPVYELK | 3.3265 | 
22 | DOMAIN_13470 (protein, listed as Phascolarctos cinereus) PQEPVTFKDVAVDFSQEEWGLLGPAQRHLYRDVMLENYRNLVSLGLILAKPEVVCHLEQGGELWKPEHGVLCSGDGELWVR | 3.7598 | 
23 | DOMAIN_13509 (protein, listed as Phascolarctos cinereus) QQGSVTFQDVAVDFSWEEWGHLGPTQKELYREVMLENYGNLVCLGLAVSSPDVVCQLERGEGPWMPEGDAPGSSRAGSSKH | 2.8053 | 
24 | DOMAIN_13501 (protein, listed as Macaca fascicularis) SQGSVTFRDVAIDFSQEEWKWLQPAQRDLYRCVMLENYGHLVSLGLSISKPDVVSLLEQGKEPWLGKRNVNRDLFSVSESS | 2.8162 | 
25 | DOMAIN_13293 (protein, listed as Myotis lucifugus) VKFADVAVYFSPEEWGCLRPAQRALYRDVMRENYGHLGALGCAGPKPALISWLERNTEDWEPAALDPQDCPRGLMVQRKWP | 2.5884 | 
26 | DOMAIN_13332 (protein, listed as Phascolarctos cinereus) PQESVTFRDVAVDFTWEEWGQLDPSQKELYREVMLENYGNLACLGLAVSKPDVILQLERGEIPWMSERKVPEGICPDWEAR | 2.685 | 
27 | DOMAIN_19460 (protein, listed as Monodelphis domestica) FQASVTFKDVAVDFTWEEWRLLDPPQKELFWEVMLENYRNLVCLGLADSNKDVMMSKLESGEPHWIPTGGVLRSCWPGWES |  | 3.995

Like-named read-outs stand apart in the source and are kept apart here.
